According to the supplement of paper PMC4967469:
The IC50 comes from the fitted curve, where viability falls to half of the control; where the fit passes the top or lowest dose, that dose stands as a limit. AUC, from the same fit, is the share of area under the viability curve across the 256-fold dose range: 1 means no effect, lower means more sensitive. The top dose, if marked as inferred, is not printed in the source and was worked back from the curve model. An entry number marks a drug with two screens in the source, which often give different values.

Each cell line was assayed with NC(=O)[C@@H](CCC(F)(F)F)N(Cc1ccc(-c2ncon2)cc1F)S(=O)(=O)c1ccc(Cl)cc1 [BMS-708163] (assay: Viability of human cancer cell lines after 72 h of drug (GDSC screen)). Settings: screen: GDSC drug entry 205; top dose inferred.
Method: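 Human cancer cell lines in 384-well plates, medium with 10% serum, drug for 72 h over a 256-fold dose range (nine 2-fold or five 4-fold steps up to the top dose). Adherent lines were fixed and stained with the nucleic acid dye Syto60, suspension lines read with resazurin; signal relative to control wells, capped at 0 and 100%. One two-parameter sigmoid per drug and line, fitted in a mixed model over all curves with the slope shared within a line.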

Row | Cell Line | AUC | IC50 [µM]
1 | KMOE-2 (acute myeloid leukaemia, suspension, top dose 10.24 µM) | 0.987 | > 10.2
2 | MFE-319 (endometrium, adherent, top dose 10.24 µM) | 0.989 | > 10.2
3 | MDA-MB-436 (breast, adherent, top dose 10.24 µM) | 0.983 | > 10.2
4 | PANC-03-27 (pancreas, adherent, top dose 10.24 µM) | 0.986 | > 10.2
5 | TOV-21G (ovary, adherent, top dose 10.24 µM) | 0.932 | > 10.2
6 | SCC-25 (head and neck, adherent, top dose 10.24 µM) | 0.983 | > 10.2
7 | TMK-1 (stomach, adherent, top dose 10.24 µM) | 0.986 | > 10.2
8 | KINGS-1 (glioma, adherent, top dose 10.24 µM) | 0.974 | > 10.2
9 | PL-21 (acute myeloid leukaemia, suspension, top dose 10.24 µM) | 0.982 | > 10.2
10 | SUP-HD1 (Hodgkin lymphoma, suspension, top dose 10.24 µM) | 0.982 | > 10.2
11 | NCI-H847 (small cell lung carcinoma, adherent, top dose 10.24 µM) | 0.976 | > 10.2
12 | RC-K8 (B-cell lymphoma, suspension, top dose 10.24 µM) | 0.993 | > 10.2
13 | MN-60 (B-cell leukaemia, suspension, top dose 10.24 µM) | 0.986 | > 10.2
14 | OVCAR-5 (ovary, adherent, top dose 10.24 µM) | 0.974 | > 10.2
15 | D-336MG (glioma, adherent, top dose 10.24 µM) | 0.972 | > 10.2
16 | NCI-H838 (lung adenocarcinoma, adherent, top dose 10.24 µM) | 0.987 | > 10.2
17 | COR-L279 (small cell lung carcinoma, suspension, top dose 10.24 µM) | 0.981 | > 10.2
18 | T-T (oesophagus, adherent, top dose 10.24 µM) | 0.987 | > 10.2
19 | HuCCT1 (biliary tract, adherent, top dose 10.24 µM) | 0.98 | > 10.2
20 | LC-1-sq (lung squamous cell carcinoma, adherent, top dose 10.24 µM) | 0.984 | > 10.2
21 | DU-4475 (breast, suspension, top dose 10.24 µM) | 0.992 | > 10.2
22 | ONS-76 (medulloblastoma, adherent, top dose 10.24 µM) | 0.984 | > 10.2
23 | CAMA-1 (breast, adherent, top dose 10.24 µM) | 0.984 | > 10.2
24 | DAN-G (pancreas, adherent, top dose 10.24 µM) | 0.992 | > 10.2
25 | LK-2 (lung squamous cell carcinoma, adherent, top dose 10.24 µM) | 0.989 | > 10.2
26 | KP-2 (pancreas, adherent, top dose 10.24 µM) | 0.975 | > 10.2
27 | SBC-5 (small cell lung carcinoma, adherent, top dose 10.24 µM) | 0.992 | > 10.2

Row | Cell Line | AUC | IC50 [µM]
28 | HMV-II (melanoma, adherent, top dose 10.24 µM) | 0.968 | > 10.2
29 | SW982 (soft tissue, adherent, top dose 10.24 µM) | 0.972 | > 10.2
30 | WM278 (melanoma, adherent, top dose 10.24 µM) | 0.982 | > 10.2
31 | NCI-H596 (lung adenocarcinoma, adherent, top dose 10.24 µM) | 0.971 | > 10.2
32 | KNS-42 (glioma, adherent, top dose 10.24 µM) | 0.984 | > 10.2
33 | KYSE-450 (oesophagus, adherent, top dose 10.24 µM) | 0.977 | > 10.2
34 | U251 (glioma, adherent, top dose 10.24 µM) | 0.987 | > 10.2
35 | SU-DHL-10 (B-cell lymphoma, suspension, top dose 10.24 µM) | 0.998 | > 10.2
36 | 201T (lung adenocarcinoma, adherent, top dose 10.24 µM) | 0.979 | > 10.2
37 | HC-1 (hairy cell leukaemia, suspension, top dose 10.24 µM) | 0.923 | > 10.2
38 | KYSE-410 (oesophagus, adherent, top dose 10.24 µM) | 0.985 | > 10.2
39 | SW1088 (glioma, adherent, top dose 10.24 µM) | 0.979 | > 10.2
40 | ALL-SIL (T-cell leukaemia, suspension, top dose 2.56 µM) | 0.989 | > 2.56
41 | LB2518-MEL (melanoma, adherent, top dose 10.24 µM) | 0.986 | > 10.2
42 | OSC-20 (head and neck, adherent, top dose 10.24 µM) | 0.978 | > 10.2
43 | JHU-011 (head and neck, adherent, top dose 10.24 µM) | 0.982 | > 10.2
44 | SK-PN-DW (Ewing sarcoma, adherent, top dose 10.24 µM) | 0.986 | > 10.2
45 | H2373 (mesothelioma, adherent, top dose 10.24 µM) | 0.983 | > 10.2
46 | UM-UC-3 (bladder, adherent, top dose 10.24 µM) | 0.985 | > 10.2
47 | SUIT-2 (pancreas, adherent, top dose 10.24 µM) | 0.986 | > 10.2
48 | SW1710 (bladder, adherent, top dose 10.24 µM) | 0.985 | > 10.2
49 | P31-FUJ (acute myeloid leukaemia, suspension, top dose 10.24 µM) | 0.996 | > 10.2
50 | IHH-4 (thyroid, semi-adherent, top dose 10.24 µM) | 0.993 | > 10.2
51 | NCI-H1304 (small cell lung carcinoma, suspension, top dose 10.24 µM) | 0.982 | > 10.2
52 | CAL-27 (head and neck, adherent, top dose 10.24 µM) | 0.982 | > 10.2
53 | IST-SL2 (small cell lung carcinoma, suspension, top dose 10.24 µM) | 0.986 | > 10.2

Same assay, conditions: top dose 5 µM; screen: GDSC drug entry 1072; top dose inferred

Row | Cell Line | AUC | IC50 [µM]
54 | OACp4C (oesophagus, adherent) | 0.973 | > 5
55 | NCI-H1650 (lung adenocarcinoma, adherent) | 0.981 | > 5
56 | HCE-4 (oesophagus, adherent) | 0.99 | > 5
57 | OCI-LY7 (B-cell lymphoma, suspension) | 0.989 | > 5
58 | CL-34 (large intestine, adherent) | 0.968 | > 5
59 | RCC-ER (kidney, adherent) | 0.982 | > 5
